The source of these data is PubChem BioAssay AID1625 (Sanford-Burnham Center for Chemical Genomics, 2009).

The list shows a part of the results. Shown are side measurements of this screen, not its main read-out; they come without a call. Most of these compounds were active or inconclusive in the main read-out, so they are no random draw.

The assay can be described thus: up-regulation of insulin promoter-GFP reporter – imaging, high-content screening, mouse beta cells (AID 1625).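 Further: total cells summed across four imaged fields per well.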 The note with it: MIN6 insulin promoter-GFP reporter, measured here: cytotoxicity, nuclei count, at 5 µM.
Turning to `O=C(NC1=NCCS1)C1Cc2ccccc2CN1C(=O)c1ccccc1` (configuration not stated), the cell count worked out at 1280 cells. For `CN(C)c1ncnc2c1NC1=C(S2)C(=NCCCC(=O)O)CC(C)(C)C1`, the cell count worked out at 415 cells.

Compound `Cc1sc(NC(=O)CN2CCOCC2)nc1-c1ccc2c(c1)CCN2S(=O)(=O)c1ccccc1` displayed a cell count of 446 cells. As to `CCCN1Cc2cccc(C(=O)Nc3ccc(S(=O)(=O)N4CCCCCC4)cc3)c2C1=O`, the cell count was 398 cells. Turning to `CCCCCCCCCn1c2c(c(=N)c3c1CCC3)CCC2`, the cell count worked out at 268 cells. The compound `CCN(CC)c1ccc(/C=C/C(=O)c2ccc(Br)cc2)cc1` registered a cell count of 1160 cells. With `O=C(C1=C(O)C(=O)N(c2nccs2)C1c1ccccc1)c1cc2ccccc2o1` (configuration not stated), the cell count was 1440 cells. For the compound `COC(=O)c1c(NC(=O)CC2Nc3cc(C)c(C)cc3NC2=O)sc(C)c1C` (configuration not stated), the cell count amounted to 1380 cells.

The compound `CCCCn1c(O)c(/C=C/C=C/C=Nc2ccccc2)sc1=S` displayed a cell count of 1180 cells. As for `Cc1nc(N2CCN(c3ccccc3)CC2)c2c3c(sc2n1)CCC3`, the cell count was 210 cells.

For `Cc1ccc(Nc2nc3ccccc3nc2Nc2c(C)n(C)n(-c3ccccc3)c2=O)cc1`, the cell count came to 413 cells. Compound `N#C/C(=C/c1ccc(N2CCOCC2)o1)c1ccc(Cl)cc1` yielded a cell count of 1360 cells. Regarding `Cc1sc2ncnc(NCc3ccco3)c2c1C`, the cell count came out at 423 cells. `CC(/C=C/C1(O)C(C)CC(O)CC1(C)C)OC1OC(CO)C(O)C(O)C1O` (configuration not stated) had a cell count of 474 cells. For `Cc1ccccc1-c1nnc(-c2ccc(Cl)cc2)o1`, the cell count worked out at 721 cells.

`CCCCCCCCCn1ccc(=N)cc1` came in with a cell count of 337 cells. As for `CCCCCCCCCCCCCCCCn1cc[n+](CC(C)=O)c1`, the cell count was found to be 379 cells. `CCOC(=O)/C(C#N)=C/C=C1\C=Cc2ccccc2N1CC` registered a cell count of 1190 cells. For the compound `Cc1oc2ccc(OS(C)(=O)=O)cc2c1C(=O)OC(C)C`, the cell count stood at 369 cells. Regarding `CC(=O)Nc1ccc(C(=O)N(C)C(C(=O)Nc2ccccc2)c2ccccn2)cc1` (configuration not stated), the cell count stood at 488 cells.

Consider `Cc1ccc(NC(=O)Cc2nn(C)c(=O)c3ccccc23)cc1F`, for which the cell count was determined as 255 cells.

`CN(CCOc1ccc(Cl)cc1)c1ccc(S(=O)(=O)N2CCCCC2)cn1` had a cell count of 354 cells. As to `CCN1C(=O)/C(=C/C=C2\N(CC)c3cc(S(=O)(=O)N(C)C)ccc3N2c2ccccc2)SC1=S`, the cell count amounted to 1010 cells. `CCOC(=O)N1CCN(C(=O)c2cc(S(=O)(=O)N3CCCC3)cn2C)CC1` came in with a cell count of 1340 cells. `CC(C)OCCCNc1ncnc2c1[nH]c1ccccc12` had a cell count of 449 cells. `CNC(=O)c1c(NC(=O)c2ccc(S(=O)(=O)N3CCCc4ccccc43)cc2)sc2c1CCN(C)C2` registered a cell count of 1040 cells. To `CC(=O)Nc1ccc(Oc2cc(C#N)c(C#N)cc2N2CCCCCC2)cc1` belongs 363 cells; to `CCCCC(=O)Nc1ccc2c(c1)nc1n2CCSC1`, 809 cells. Compound `c1ccc(CN2CCN(c3nc(-c4ccccn4)nc4ccccc34)CC2)cc1` yielded a cell count of 465 cells.

`CCC(=O)Nc1ccc(C(=O)OCC(=O)c2ccc(C)c([N+](=O)[O-])c2)cc1` yielded a cell count of 1440 cells. For `Cc1onc(-c2ccccc2Cl)c1C(=O)N(C)C1CCCCC1`, the cell count is 362 cells.

Compound `Cc1cc(Cl)n2c(nc3ccccc32)c1C#N` yielded a cell count of 314 cells.

On to `O=[N+]([O-])c1ccc(/C=N/N=C/c2ccc([N+](=O)[O-])o2)o1`, for which the cell count is 369 cells. As for `O=Cc1cc2ccccc2nc1SCc1ccc(Cl)c(Cl)c1`, the cell count stood at 442 cells.

On to `COc1cc([C@@H]2[C@H]3CN(C)CC=C3C(C#N)=C(N)C2(C#N)C#N)cc2c1OCO2`, for which the cell count came out at 1320 cells. The compound `CN1C2CCC1/C(=C/c1cccn1C)C(=O)/C2=C\c1cccn1C` had a cell count of 1080 cells.

`Nc1c(C(=O)c2ccccc2)sc2nsc(SCCN3CCCC3)c12`: the cell count worked out at 801 cells. Take `Cc1cc(/C=C2/SC(=S)N(c3ccc([N+](=O)[O-])cc3)C2=O)c(C)n1-c1cccnc1`: the cell count was 276 cells. To `Cc1ccc(-n2c3c(c(=O)[nH]c2=O)C(C(F)(F)F)(C(F)(F)F)NC(=O)N3)cc1` belongs 1550 cells; to `CCS(=O)(=O)n1nc(-c2ccccc2)cc1N`, 365 cells; to `Cc1cccc(Cn2c(SCCN3CCCCC3)nc3c2c(=O)[nH]c(=O)n3C)c1`, 495 cells. The figure for `CCOC(=O)c1nnn(-c2nonc2N)c1-c1ccc(OCC)cc1` is 1950 cells; for `Cc1ccc(N2C(=O)c3cccc4c(N5CCN(C)CC5)ccc(c34)C2=O)c2cccnc12` it is 1340 cells; for `CC(C)OC(=O)c1c2c(n3ccccc13)C(=O)c1ccccc1C2=O` it is 1450 cells. The compound `CCOC(=O)c1sc2nc(CC(=O)OC)nc(NCc3ccc(F)cc3)c2c1C` displayed a cell count of 451 cells. Compound `CN(C)c1ccc(/C=C2\SC(=S)N(Nc3ncc(C(F)(F)F)cc3Cl)C2=O)cc1` came in with a cell count of 1510 cells. `CCOc1ccccc1C(=O)N1CCN=C1SC` had a cell count of 437 cells. Compound `O=C(N/N=C/c1ccccc1O)c1cccc(C(F)(F)F)c1` registered a cell count of 469 cells. Compound `CCCOc1ccc(-c2nn(-c3ccccc3)cc2/C=C2\SC(=S)N(C3CCS(=O)(=O)C3)C2=O)cc1` (configuration not stated) had a cell count of 961 cells. The compound `Cc1cc(NC(=S)N(Cc2ccc(Br)cc2)Cc2ccc(C(=O)O)cc2)ccc1Cl` displayed a cell count of 1190 cells. To `Cc1cc(C)c(C(=O)O)c(CC(C)(C)C(=O)O)c1` belongs 1360 cells.

Regarding `CN(/N=C\c1ccc(O)c(O)c1)c1nc(-c2ccccc2)cc(-c2ccccc2)n1`, the cell count turned out to be 324 cells.

In turn, `O=C(CSc1nnc(Cn2nnc3ccccc32)o1)N(Cc1ccc(Cl)cc1)c1ccccc1` yielded a cell count of 446 cells. The figure for `Cc1ccc(OCCN2CCN(C(=O)CCC(=O)Nc3nnc(C(C)C)s3)CC2)cc1` is 208 cells. `Cc1cc(=O)oc2cc(OCC(=O)OCC(=O)NC3CC3)ccc12` gave a cell count of 1360 cells. With `Nc1c(C(=O)O)sc2nc(-c3ccccc3)cc(-c3ccccc3)c12`, the cell count turned out to be 1410 cells. In turn, `CCCCCCc1cc2cc(-c3nnc(-c4ccccc4OC)o3)c(=O)oc2cc1O` registered a cell count of 699 cells. The figure for `O=C1N=C2N(CCN3CCCCC3)c3ccccc3N2/C1=C\c1ccc([N+](=O)[O-])o1` is 410 cells; for `CC(=O)c1cc(F)c(N2CCN(C(=O)COc3ccc(F)cc3)CC2)cc1C` it is 458 cells. Take `COc1ccc(-c2c[n+]3c(n2-c2ccccc2)SCC3)cc1`: the cell count was 457 cells.

`Oc1c(/C=C/C=C/C=Nc2ccccc2)sc(=S)n1Cc1ccccc1` yielded a cell count of 1090 cells.

Take `COc1ccccc1NS(=O)(=O)c1cc([N+](=O)[O-])ccc1N/N=C/c1sc(N2CCOCC2)nc1-c1ccccc1`: the cell count amounted to 1440 cells. `CSC1=NCCN1C(=O)c1c(F)cccc1Cl` had a cell count of 454 cells. Regarding `Clc1cccc(Cl)c1NC1=NCCC1`, the cell count worked out at 457 cells. In turn, `CCN(C(=O)CSc1nc2cc(C(=O)OC)ccc2c(=O)n1Cc1ccco1)c1cccc(C)c1` came in with a cell count of 1440 cells. Regarding `CCCN1C=CC(=CC=C(C#N)C#N)C=C1`, the cell count was 1390 cells.

As for `CCCCNc1ccc2c3c(cccc13)C(=O)N(CCCC)C2=O`, the cell count was 1020 cells.
